# According to PMC5700166:
# This is a selection; strong and weak results do not stand in their true shares. The list includes weakly bound sequences.
# Molecular target: T1, GST-Dm-Relish (UniProt Q94527)
# T1 sequence: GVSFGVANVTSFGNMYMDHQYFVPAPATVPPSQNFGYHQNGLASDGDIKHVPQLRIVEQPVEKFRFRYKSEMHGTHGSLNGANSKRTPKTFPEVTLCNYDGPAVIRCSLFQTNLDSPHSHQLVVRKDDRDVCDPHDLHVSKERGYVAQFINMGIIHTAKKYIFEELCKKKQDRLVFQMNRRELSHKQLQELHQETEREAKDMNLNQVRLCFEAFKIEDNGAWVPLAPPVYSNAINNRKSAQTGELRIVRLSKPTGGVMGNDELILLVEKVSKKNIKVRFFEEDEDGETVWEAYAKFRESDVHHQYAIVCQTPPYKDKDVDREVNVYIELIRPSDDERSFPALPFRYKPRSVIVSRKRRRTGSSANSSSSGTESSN
# Assay: protein-binding microarray (PBM)
# Conditions: PBM: ~300 nM protein, 6 mM HEPES pH 7.8, 80 mM KCl, 0.5 mM EDTA, 0.5 mM EGTA, 6% glycerol, 35 ng/ul poly-dIdC, 1% milk, 1 h, room temperature; Ap Aiptasia and Nv Nematostella (sea anemones) / Co Capsaspora / Aq Amphimedon (sponge) / Dm Drosophila / Hu human; RHD is the Rel homology domain; high values mean tight binding; most listed sequences are background and not binding sites; double strand, one strand shown
row,Sequence,binding signal [z-score]
1,CCGATTAACATCACCTTGGGAAATGATGTTAATCGGGTCTTGATTCGCTTGACGCTGCTG,0.816
2,CCGATTAACATCAGGGGAATCCATGATGTTAATCGGGTCTTGATTCGCTTGACGCTGCTG,9.65
3,CCGATTAACATCAAAAATCCCAGTGATGTTAATCGGGTCTTGATTCGCTTGACGCTGCTG,7.35
4,CCGATTAACATCAGGGAAATGTATGATGTTAATCGGGTCTTGATTCGCTTGACGCTGCTG,0.922
5,CCGATTAACATCAGGGAATTAGATGATGTTAATCGGGTCTTGATTCGCTTGACGCTGCTG,0.874
6,CCGATTAACATCAGGGGTAAATATGATGTTAATCGGGTCTTGATTCGCTTGACGCTGCTG,1.66
7,CCGATTAACATCAATTCCCATCCTGATGTTAATCGGGTCTTGATTCGCTTGACGCTGCTG,0.575
8,CCGATTAACATCAAATTCCCACGTGATGTTAATCGGGTCTTGATTCGCTTGACGCTGCTG,3.95
9,CCGATTAACATCAAACACCCCCCTGATGTTAATCGGGTCTTGATTCGCTTGACGCTGCTG,5.5
10,CCGATTAACATCATAATCCCCCATGATGTTAATCGGGTCTTGATTCGCTTGACGCTGCTG,5.67
11,CCGATTAACATCACGGGATTTACTGATGTTAATCGGGTCTTGATTCGCTTGACGCTGCTG,7.12
12,CCGATTAACATCAAAATTTACCCTGATGTTAATCGGGTCTTGATTCGCTTGACGCTGCTG,4.47
13,CCGATTAACATCAAGAATCCCCTTGATGTTAATCGGGTCTTGATTCGCTTGACGCTGCTG,8.39
14,CCGATTAACATCAAAAGTCCCCATGATGTTAATCGGGTCTTGATTCGCTTGACGCTGCTG,8.38
15,CCGATTAACATCAGGGGTAGGTTTGATGTTAATCGGGTCTTGATTCGCTTGACGCTGCTG,0.828
16,CCGATTAACATCAAGGGGTCCCCTGATGTTAATCGGGTCTTGATTCGCTTGACGCTGCTG,6.15
17,CCGATTAACATCAGATCTTCCCCTGATGTTAATCGGGTCTTGATTCGCTTGACGCTGCTG,4.83
18,CCGATTAACATCACTATTCCCCCTGATGTTAATCGGGTCTTGATTCGCTTGACGCTGCTG,3.2
19,CCGATTAACATCAAAGTGTCCCCTGATGTTAATCGGGTCTTGATTCGCTTGACGCTGCTG,1.98

row,Sequence,binding signal [z-score]
1,CCGATTAACATCAAAAGGGAATTTGATGTTAATCGGGTCTTGATTCGCTTGACGCTGCTG,4.25
2,CCGATTAACATCAGGGTATTTAATGATGTTAATCGGGTCTTGATTCGCTTGACGCTGCTG,3.25
3,CCGATTAACATCACGGGAAACCCTGATGTTAATCGGGTCTTGATTCGCTTGACGCTGCTG,7.56
4,CCGATTAACATCAAGGTGGGAATTGATGTTAATCGGGTCTTGATTCGCTTGACGCTGCTG,0.988
5,CCGATTAACATCAATCTACCCCCTGATGTTAATCGGGTCTTGATTCGCTTGACGCTGCTG,2.3
6,CCGATTAACATCAGAATAACCCCTGATGTTAATCGGGTCTTGATTCGCTTGACGCTGCTG,3.29
7,CCGATTAACATCAACATGGGAATTGATGTTAATCGGGTCTTGATTCGCTTGACGCTGCTG,0.541
8,CCGATTAACATCAGGGACAACCCTGATGTTAATCGGGTCTTGATTCGCTTGACGCTGCTG,3.09
9,CCGATTAACATCAAGGGGGGAACTGATGTTAATCGGGTCTTGATTCGCTTGACGCTGCTG,3.7
10,CCGATTAACATCAAAAAATCCCTTGATGTTAATCGGGTCTTGATTCGCTTGACGCTGCTG,8.1
11,CCGATTAACATCAAATTTTCCCGTGATGTTAATCGGGTCTTGATTCGCTTGACGCTGCTG,3.36
12,CCGATTAACATCAGGATGTCCCCTGATGTTAATCGGGTCTTGATTCGCTTGACGCTGCTG,5.89
13,CCGATTAACATCAAGTGTTTCCCTGATGTTAATCGGGTCTTGATTCGCTTGACGCTGCTG,4.7
14,CCGATTAACATCAGGGGGGGTCATGATGTTAATCGGGTCTTGATTCGCTTGACGCTGCTG,3.85
15,CCGATTAACATCACACCACCCCCTGATGTTAATCGGGTCTTGATTCGCTTGACGCTGCTG,2.4
16,CCGATTAACATCATAATTCCCAATGATGTTAATCGGGTCTTGATTCGCTTGACGCTGCTG,2.22
17,CCGATTAACATCAGGGACTACCCTGATGTTAATCGGGTCTTGATTCGCTTGACGCTGCTG,7.1
18,CCGATTAACATCAGGGAAATCCATGATGTTAATCGGGTCTTGATTCGCTTGACGCTGCTG,5.65
